Data reported in the supplement of paper PMC4604168 (melanoma cell lines).
Some of the results follow. Most values come without repeats; read them as rough.

Test system: IPC-298
Assay: cell count relative to DMSO control; melanoma cells; higher = more viable cells
Details: library dose: standard library concentration; 72 h
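Note: cells treated in 1,536-well plates, then fixed and DAPI-stained, with nuclei counted from automated high-throughput microscope images.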

Compound	cell count
CS(=O)(=O)c1ccc(C(=O)Nc2ccc(Cl)c(-c3ccccn3)c2)c(Cl)c1 [vismodegib] + Cn1nnc2c(C(N)=O)ncn2c1=O [temozolomide] (first compound 5 µM, partner dose 10 µM)	83.4%
CCCS(=O)(=O)Nc1ccc(F)c(C(=O)c2c[nH]c3ncc(Cl)cc23)c1F + Cn1nnc2c(C(N)=O)ncn2c1=O [temozolomide] (first compound 0.4 µM, partner dose 10 µM)	65.7%
C=C(c1ccc(C(=O)O)cc1)c1cc2c(cc1C)C(C)(C)CCC2(C)C [Bexarotene] + C#Cc1cccc(Nc2ncnc3cc(OCCOC)c(OCCOC)cc23)c1 [erlotinib] (first compound 10 µM, partner dose 4 µM)	70.7%
CS(=O)(=O)c1ccc(C(=O)Nc2ccc(Cl)c(-c3ccccn3)c2)c(Cl)c1 [vismodegib] + CCCCCCCCCCCC1=C(O)C(=O)C=C(O)C1=O [Embelin] (first compound 5 µM, partner dose 6 µM)	87%
CCCS(=O)(=O)Nc1ccc(F)c(C(=O)c2c[nH]c3ncc(Cl)cc23)c1F + COc1ccc(COc2ccc(Cc3cnc(N)nc3N)cc2OC)cc1 [GW2580] (first compound 0.4 µM, partner dose 5 µM)	76%
CN(c1ncccc1CNc1nc(Nc2ccc3c(c2)CC(=O)N3)ncc1C(F)(F)F)S(C)(=O)=O + CN(NC(=O)CC(=O)NN(C)C(=S)c1ccccc1)C(=S)c1ccccc1 [STA4783] (first compound 0.4 µM, partner dose 0.03 µM)	81.6%
C=C(c1ccc(C(=O)O)cc1)c1cc2c(cc1C)C(C)(C)CCC2(C)C [Bexarotene] + Cc1cc(N2CCOCC2)cc2[nH]c(-c3c(NC[C@@H](O)c4cccc(Cl)c4)cc[nH]c3=O)nc12 [BMS536924] (first compound 10 µM, partner dose 1 µM)	92.8%
CN(c1ncccc1CNc1nc(Nc2ccc3c(c2)CC(=O)N3)ncc1C(F)(F)F)S(C)(=O)=O + C#Cc1cccc(Nc2ncnc3cc(OCCOC)c(OCCOC)cc23)c1 [erlotinib] (first compound 0.4 µM, partner dose 4 µM)	59.2%
C=C(c1ccc(C(=O)O)cc1)c1cc2c(cc1C)C(C)(C)CCC2(C)C [Bexarotene] + CN(NC(=O)CC(=O)NN(C)C(=S)c1ccccc1)C(=S)c1ccccc1 [STA4783] (first compound 10 µM, partner dose 0.03 µM)	67.8%
NC1(c2ccc(-c3nc4ccn5c(=O)[nH]nc5c4cc3-c3ccccc3)cc2)CCC1 + O=C(O)C(=O)Nc1sc2c(c1C(=O)O)CCNC2 [TCS401] (first compound 2 µM, partner dose 8.33333 µM)	93.8%
NC1(c2ccc(-c3nc4ccn5c(=O)[nH]nc5c4cc3-c3ccccc3)cc2)CCC1 + O=C(Nc1cccc(Cl)c1)Nc1ncc(CCNc2ncnc3ccsc23)s1 [SNS314] (first compound 2 µM, partner dose 0.004 µM)	92.9%
CCCS(=O)(=O)Nc1ccc(F)c(C(=O)c2c[nH]c3ncc(Cl)cc23)c1F + CC(=O)c1c(C)c2cnc(Nc3ccc(N4CCNCC4)cn3)nc2n(C2CCCC2)c1=O [palbociclib] (first compound 0.4 µM, partner dose 0.2 µM)	45.8%
CS(=O)(=O)c1ccc(C(=O)Nc2ccc(Cl)c(-c3ccccn3)c2)c(Cl)c1 [vismodegib] + Cc1cc(N2CCOCC2)cc2[nH]c(-c3c(NC[C@@H](O)c4cccc(Cl)c4)cc[nH]c3=O)nc12 [BMS536924] (first compound 5 µM, partner dose 1 µM)	101%
CCCS(=O)(=O)Nc1ccc(F)c(C(=O)c2c[nH]c3ncc(Cl)cc23)c1F + CCCCCCCCCCCC1=C(O)C(=O)C=C(O)C1=O [Embelin] (first compound 0.4 µM, partner dose 6 µM)	85.7%
NC1(c2ccc(-c3nc4ccn5c(=O)[nH]nc5c4cc3-c3ccccc3)cc2)CCC1 + CC(C)(C)c1cnc(CSc2cnc(NC(=O)C3CCNCC3)s2)o1 [SNS-032] (first compound 2 µM, partner dose 0.05 µM)	108%
C=C(c1ccc(C(=O)O)cc1)c1cc2c(cc1C)C(C)(C)CCC2(C)C [Bexarotene] + CC(=O)c1c(C)c2cnc(Nc3ccc(N4CCNCC4)cn3)nc2n(C2CCCC2)c1=O [palbociclib] (first compound 10 µM, partner dose 0.2 µM)	59.1%
CN(c1ncccc1CNc1nc(Nc2ccc3c(c2)CC(=O)N3)ncc1C(F)(F)F)S(C)(=O)=O + O=C(Nc1ccccc1)c1cc([N+](=O)[O-])ccc1Cl [GW9662] (first compound 0.4 µM, partner dose 10 µM)	119%
CCCS(=O)(=O)Nc1ccc(F)c(C(=O)c2c[nH]c3ncc(Cl)cc23)c1F + Cc1nc(Nc2ncc(C(=O)Nc3c(C)cccc3Cl)s2)cc(N2CCN(CCO)CC2)n1 [dasatanib] (first compound 0.4 µM, partner dose 0.02 µM)	61.7%
CCCS(=O)(=O)Nc1ccc(F)c(C(=O)c2c[nH]c3ncc(Cl)cc23)c1F + C#Cc1cccc(Nc2ncnc3cc(OCCOC)c(OCCOC)cc23)c1 [erlotinib] (first compound 0.4 µM, partner dose 4 µM)	43.9%
C=C(c1ccc(C(=O)O)cc1)c1cc2c(cc1C)C(C)(C)CCC2(C)C [Bexarotene] + Nc1nc(F)nc2c1ncn2[C@@H]1O[C@H](CO)[C@@H](O)[C@@H]1O [fludarabine] (first compound 10 µM, partner dose 1 µM)	57.9%
CCCS(=O)(=O)Nc1ccc(F)c(C(=O)c2c[nH]c3ncc(Cl)cc23)c1F + O=C1NC(=O)/C(=C/c2ccc(-c3ccc(F)cc3O)o2)S1 [AS252424] (first compound 0.4 µM, partner dose 5 µM)	82.3%
NC1(c2ccc(-c3nc4ccn5c(=O)[nH]nc5c4cc3-c3ccccc3)cc2)CCC1 + Oc1nc(-c2ccc(C(F)(F)F)cc2)nc2c1CSCC2 [XAV939] (first compound 2 µM, partner dose 10 µM)	99.2%
CS(=O)(=O)c1ccc(C(=O)Nc2ccc(Cl)c(-c3ccccn3)c2)c(Cl)c1 [vismodegib] + O=C(O)C(=O)Nc1sc2c(c1C(=O)O)CCNC2 [TCS401] (first compound 5 µM, partner dose 8.33333 µM)	93.8%
CS(=O)(=O)c1ccc(C(=O)Nc2ccc(Cl)c(-c3ccccn3)c2)c(Cl)c1 [vismodegib] + Cn1c(Nc2ccc(C(F)(F)F)cc2)nc2cc(Oc3ccnc(-c4ncc(C(F)(F)F)[nH]4)c3)ccc21 [CHIR265] (first compound 5 µM, partner dose 0.4 µM)	40.3%
CN(c1ncccc1CNc1nc(Nc2ccc3c(c2)CC(=O)N3)ncc1C(F)(F)F)S(C)(=O)=O + COc1cc2ncnc(Nc3ccc(Oc4ccccc4)cc3)c2cc1OC [SrcI1] (first compound 0.4 µM, partner dose 10 µM)	83.6%
NC1(c2ccc(-c3nc4ccn5c(=O)[nH]nc5c4cc3-c3ccccc3)cc2)CCC1 + Oc1cc(-c2nc(-c3ccccc3)[nH]c2-c2ccncc2)ccc1Cl [L779450] (first compound 2 µM, partner dose 1 µM)	83.8%
CS(=O)(=O)c1ccc(C(=O)Nc2ccc(Cl)c(-c3ccccn3)c2)c(Cl)c1 [vismodegib] + C[C@]1(c2nc3c(C(N)=O)cccc3[nH]2)CCCN1 [Veliparib] (first compound 5 µM, partner dose 7 µM)	96.9%
